{"source": "the supplement of paper PMC10338343", "note": "± gives the standard deviation. Whole data set: some 6,600 sequences, median “pre-steady-state target cleavage rate” near 0.07, cut for the highest 2% near 0.72. This is a selection; strong and weak results do not stand in their true shares.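 Further: 1 nM active piRISC with 0.1 nM target library at 33 °C single turnover.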"}
{"tested_on": "MIWI (PIWIL1) piRISC loaded with Kctd7 piRNA (30 nt)", "test": "pre-steady-state target cleavage rate (min^-1); MIWI and MILI are mouse PIWI proteins and EfPiwi is from a freshwater sponge; tags in brackets are library labels; higher = faster piRNA-guided slicing of the target", "details": "guide: Kctd7 piRNA 5'p-UGUUAAUCUCUCAGAGAAGGUGACAGUGAU; auxiliary factor: 500 nM mouse GTSF1", "procedure,_shortened": "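In HEPES–potassium acetate buffer at 33 °C, […] transcribed, DNA-blocked target RNA library was mixed with 1 nM active affinity-purified piRISC carrying one synthetic guide, with or without 500 nM GTSF1 partner protein, for 0–8 or 0–960 min. Uncleaved targets were sequenced and normalised to depth and to weakly complementary targets; three trials were pooled and k3 was capped at 0.0001 min^-1. The pre-steady-state cleavage rate followed from a burst-and-steady-state fit.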"}
{"sequence": "UAGUGUGUCACCUUCUCUGAGUCUUUAACA", "pre-steady-state target cleavage rate": "0.00492 ± 0.0034"}
{"sequence": "UUCACAGUCACCUUCUCUGAGAGUUUAACA", "pre-steady-state target cleavage rate": "0.548 ± 0.083"}
{"sequence": "UACACUGUCACCUUCUCUGAGAGAUUUACA", "pre-steady-state target cleavage rate": "0.381 ± 0.048"}
{"sequence": "UUCACUGUCACCUUCUCUGAGAGACUUAACA", "pre-steady-state target cleavage rate": "0.345 ± 0.042"}
{"sequence": "UAGUGAGUCACCUUCUGUGAGAGAUUAUGA", "pre-steady-state target cleavage rate": "0.0461 ± 0.015"}
{"sequence": "UAGUGAGUCACCUUGUCUGAGAGAUUUACA", "pre-steady-state target cleavage rate": "0.0459 ± 0.016"}
{"sequence": "UACACUGUCACCUUCUCUGACUGAUUAACA", "pre-steady-state target cleavage rate": "0.014 ± 0.0056"}
{"sequence": "UUCACUUCACCUUCUCUGAGAGAUUAACA", "pre-steady-state target cleavage rate": "0.607 ± 0.031"}
{"sequence": "UAGUGAGUCACCUUCUCUGAGGAGAUUAACA", "pre-steady-state target cleavage rate": "0.0114 ± 0.005"}
{"sequence": "UAGUGUGUCACCUUCACAGAGAGAUUAACA", "pre-steady-state target cleavage rate": "0.0668 ± 0.01"}
{"sequence": "UUCACUGUCACCUUCUCUGAGAGAUCUAACA", "pre-steady-state target cleavage rate": "0.305 ± 0.047"}
{"sequence": "UAGACUGUCACCUUGUCUGAGAGAUUAACA", "pre-steady-state target cleavage rate": "0.495 ± 0.075"}
{"sequence": "UAGUGAGUCAGGUUCUCUGAGAGAUUAACA", "pre-steady-state target cleavage rate": "0.251 ± 0.026"}
{"sequence": "UAGUGACUCUCCUUCUCUGAGAGAUUAACA", "pre-steady-state target cleavage rate": "0.146 ± 0.015"}
{"sequence": "UAGUGACAGUCCUUGUCUGAGAGAUUAUCA", "pre-steady-state target cleavage rate": "0.00495 ± 0.0035"}
{"sequence": "UAGUCUGUCACCUUCUGAGAGAGAUUUUGA", "pre-steady-state target cleavage rate": "0.00964 ± 0.0056"}
{"sequence": "AUCACUGUCACCUUGUCAGAGAGAUUAACA", "pre-steady-state target cleavage rate": "0.268 ± 0.032"}
{"sequence": "UAGUGAGUCACCAUCUCUCAGAGAUUAACA", "pre-steady-state target cleavage rate": "0.0489 ± 0.0091"}
{"sequence": "UAGUGUCUCAGCUUCUCUGAGAGAUUAACA", "pre-steady-state target cleavage rate": "0.437 ± 0.031"}
{"sequence": "UAGUGUGUCACCUUCUCUCAGACAUUAACA", "pre-steady-state target cleavage rate": "0.0309 ± 0.0057"}
{"sequence": "UACACUGUGACCUUCUCUGAGAGAUAAACA", "pre-steady-state target cleavage rate": "0.167 ± 0.028"}
{"sequence": "UAGUCACACACCUUCUCUGAGAGAUAUUGA", "pre-steady-state target cleavage rate": "0.0189 ± 0.0072"}
{"sequence": "UACACUGUCACCUUCUCUGUGAGAUUUUGA", "pre-steady-state target cleavage rate": "0.0431 ± 0.016"}
{"sequence": "UAGUGACAGACCUGUCUCUGAGAGAUUAACA", "pre-steady-state target cleavage rate": "0.0177 ± 0.004"}
{"sequence": "UAGUCUGUCACCUAGACUGAGAGAUUAACA", "pre-steady-state target cleavage rate": "0.0162 ± 0.0037"}
{"sequence": "UACACUGUCACCUUCUCUGUGAGAUUAUGA", "pre-steady-state target cleavage rate": "0.0355 ± 0.013"}
{"sequence": "UAGUGUGUCAGCUUCACUGAGAGAUUAACA", "pre-steady-state target cleavage rate": "0.375 ± 0.028"}
{"sequence": "UAGACAGUCAGCUUCUCUGAGAGAUUAACA", "pre-steady-state target cleavage rate": "0.682 ± 0.035"}
{"sequence": "UACACUGUCACCAUCUCUGAGAGAUUUUGA", "pre-steady-state target cleavage rate": "0.0166 ± 0.0069"}
{"sequence": "UAGUCUAUCACCUUCUCUGAGAGAUUAACA", "pre-steady-state target cleavage rate": "0.531 ± 0.022"}
{"sequence": "UAGUGACUCACCUUCUCUGAGAGUUUAUCA", "pre-steady-state target cleavage rate": "0.0426 ± 0.013"}
{"sequence": "UAGUGAGUCACCUUCUCUGAGACAUUUACA", "pre-steady-state target cleavage rate": "0.0782 ± 0.021"}
{"sequence": "UAGUGACAGUGCUCUCUCUGAGAGAUUAACA", "pre-steady-state target cleavage rate": "0.0146 ± 0.0035"}
{"sequence": "UUCACUGUCACCUUCUCUGAGAGAUUUUCA", "pre-steady-state target cleavage rate": "0.157 ± 0.024"}
{"sequence": "UACUCAGUCACCUUCUCUGAGAGAUUAACA", "pre-steady-state target cleavage rate": "0.325 ± 0.045"}
{"sequence": "UAGUCAGUCACGUUCUCUGAGAGAUUAACA", "pre-steady-state target cleavage rate": "0.724 ± 0.037"}
{"sequence": "UAGUGAGUCACCUUCUCUGAGAGAUUAACU [g2:g24:cont:t1U]", "pre-steady-state target cleavage rate": "0.4 ± 0.047"}
{"sequence": "UAGUCUCAGACCUUCUCUGAGAGAUUAUGA", "pre-steady-state target cleavage rate": "0.00764 ± 0.0029"}
{"sequence": "UAGUGACUCACCUUCACUGAGUGAUUAACA", "pre-steady-state target cleavage rate": "0.0251 ± 0.0056"}
{"sequence": "UAGUGAGUCUCCUUCUCUGAGAGAUUAUGA", "pre-steady-state target cleavage rate": "0.026 ± 0.0074"}
{"sequence": "UUCACUGUGACCUUCUCUGAGACAUUAACA", "pre-steady-state target cleavage rate": "0.121 ± 0.01"}
{"sequence": "UAGUCUGUCACCUUCUCUGAGAGAUUAACU [g2:g26:cont:t1U]", "pre-steady-state target cleavage rate": "0.405 ± 0.038"}
{"sequence": "UAGUGACAGACCUUCUCUGAGAGAUUACACA", "pre-steady-state target cleavage rate": "0.0607 ± 0.013"}
{"sequence": "UAGUCUGUCAGCUUCUCUGAGACAUUAACA", "pre-steady-state target cleavage rate": "0.0148 ± 0.0027"}
{"sequence": "UAGUGUCUCACCUUCUCUGAGAGAUUUUGA", "pre-steady-state target cleavage rate": "0.0163 ± 0.0058"}
{"sequence": "UAGAGUGUCACCAUCUCUGAGAGAUUAACA", "pre-steady-state target cleavage rate": "0.741 ± 0.045"}
{"sequence": "UAGUGACAGACUUUCUCUGAGAGAUUAACA", "pre-steady-state target cleavage rate": "0.154 ± 0.012"}
{"sequence": "UAGUCUGUCACCUUCACUGAGAGAUUAUGA", "pre-steady-state target cleavage rate": "0.0546 ± 0.019"}
{"sequence": "UAGUGACAGUGCUUCUCUGAGAGAUUAAGCA", "pre-steady-state target cleavage rate": "0.00521 ± 0.0027"}
{"sequence": "AUCACUGUCACCUUCUCUGAGACAUUAAGA", "pre-steady-state target cleavage rate": "0.0074 ± 0.0033"}
{"sequence": "UUCUGAGUCACCUUCUCUGAGAGAUUUUGA", "pre-steady-state target cleavage rate": "0.0824 ± 0.015"}
{"sequence": "UACACUGUCACCUUCUGUGAGAGAUUUUGA", "pre-steady-state target cleavage rate": "0.034 ± 0.012"}
{"sequence": "UUCACUGUCACCUUCUCUGAGAGAAUAUCA", "pre-steady-state target cleavage rate": "0.2 ± 0.047"}
{"sequence": "UACACUGUCACCUACUCUGAGACAUUAACA", "pre-steady-state target cleavage rate": "0.104 ± 0.013"}
{"sequence": "UAGACUGUCACCUUCUCUGAUAGAUUAACA", "pre-steady-state target cleavage rate": "0.519 ± 0.04"}
{"sequence": "UAGUCUGUCACCUUCUCAGAGAGAUUAACA", "pre-steady-state target cleavage rate": "0.429 ± 0.029"}
{"sequence": "AUCACUGUCACCUUCUCGGAGAGAUUAACA", "pre-steady-state target cleavage rate": "0.285 ± 0.018"}
{"sequence": "UACACUGUCACCUUCUCUGAGAGGAUUAACA", "pre-steady-state target cleavage rate": "0.317 ± 0.043"}
{"sequence": "UUCACUGUCACCUUCUCUGAGUGAUUAACA", "pre-steady-state target cleavage rate": "0.0461 ± 0.0074"}
{"sequence": "UAGUGACAGUGGAUCACUGAGAGAUUAUCA", "pre-steady-state target cleavage rate": "< 0.0001"}
{"sequence": "UAGUGACAGACCUUCACUGACAGAUUAACA", "pre-steady-state target cleavage rate": "0.0123 ± 0.005"}
{"sequence": "UUCACUGUCACCUUCUCUGAGAGAAAUAGA", "pre-steady-state target cleavage rate": "0.0191 ± 0.008"}
{"sequence": "UAGUCUCUCACCUUCUCUGAGAGAAUAACA", "pre-steady-state target cleavage rate": "0.137 ± 0.025"}
{"sequence": "UAGACUGUCAGCUUCUCAGAGAGAUUAACA", "pre-steady-state target cleavage rate": "0.188 ± 0.014"}
{"sequence": "UACACUGUCAGCUUCUCUGAGAGAUUAUCA", "pre-steady-state target cleavage rate": "0.214 ± 0.026"}
{"sequence": "UACACUGACUCCUUCUCUGAGAGAUUAACA", "pre-steady-state target cleavage rate": "0.496 ± 0.035"}
{"sequence": "UUCACUGUCACCUUCUCUCAGAGUUUAACA", "pre-steady-state target cleavage rate": "0.0675 ± 0.01"}
{"sequence": "UAGUGACAGUGGAACUCUGAGAGAUUAGACA", "pre-steady-state target cleavage rate": "< 0.0001"}
{"sequence": "UUCACUGUCCCUUCUCUGAGAGAUUAACA", "pre-steady-state target cleavage rate": "0.648 ± 0.047"}
{"sequence": "UAGUGUGUCACCUUCUGUGAGAGAUUUUGA", "pre-steady-state target cleavage rate": "0.00834 ± 0.0038"}
{"sequence": "UAGUGACUCACCUUCACUGUGAGAUUAACA", "pre-steady-state target cleavage rate": "0.0777 ± 0.0083"}
{"sequence": "UACACUGUGACCAUCUCUGAGAGAUUAACA", "pre-steady-state target cleavage rate": "0.487 ± 0.032"}
